# Reference: publication PMC12136788
# The list shows a part of the results.
# B1: chr14:66974463:66974464:+_ENSMUSG00000022044_ENSMUST00000074523|mus_hu|mus_mus_mus_hu_False|38_78 (ssRNA)
# RNA: GGGAGUUCUACAGUCCGACGAUCUUGUAGGACGACUUAUUCAGGGGAUCGGCCAGGAAGCAAGAGCAGAACAAGGACACCAGCGGGAGCUCCUUCAUCUUCUCCUUGUAGGCAGCAAGGGUCAUGUUUCUGGGAUCUGGUGGCCAACAGAGGAUUGAGCAUCA
# B2: chr1:163117072:163117073:-_ENSG00000143248_ENST00000313961|hu_mus|FALSE|FALSE (ssRNA)
# RNA: GGGAGUUCUACAGUCCGACGAUCCUGUGUUGCUACAAAGGAUGUAACUCAACUCACAGGGCAACUUUUGGAAGCCUGACCAGAUGACUACUUGAUUAGCUCCUUAUAAAAUUCAGAGCGCACAAAGCGGGGCAGAGAAUCCUUCAACAGAGGAUUGAGCAUCA
# B3: 136913315_136913435_1101_CDS_ENSG00000169925_ENST00000303407|human|control|control (ssRNA)
# RNA: GGGAGUUCUACAGUCCGACGAUCCUUGGAUAGCAUCUCCCUGAGGAUGCUGUCGCAGUAGCGUAGGUGCUCCGACAGCUUGCCCUUCUUGCCUGCGUGCUGGGGCACCUCGCCGUCCUCCAGGUCCUUCUUGGGAGGCUUGAUCAACAGAGGAUUGAGCAUCA
# B4: 70689264_70689384_3054_3pUTR_ENSMUSG00000003923_ENSMUST00000092430|mouse|control|control (ssRNA)
# RNA: GGGAGUUCUACAGUCCGACGAUCCCGAGUCCUUGAACACUCUGCAGGGUGCCUGGAAAGCUAGGAGCUAAGUAGUUACAUCUUAGAGGUCCGGGCAUCCCUGUAUCGCUGUAGUGCCUGCUGCUCCUGAGUUGCUCUGAAGCACAACAGAGGAUUGAGCAUCA
# B5: chr5:132424181:132424182:+_ENSG00000170606_ENST00000304858|hu_hu|FALSE|FALSE (ssRNA)
# RNA: GGGAGUUCUACAGUCCGACGAUCGGCACACUGCAAUGCACAGCCUCGAGUGACAGCUUCAUCAGCAUUUAAUGUUGUACUAAGUUCUUUACCGAAAAAUUUGCUGAUCUUCUCUUUUACCGCAGGGAUUCGUGUAGCACCACCCAACAGAGGAUUGAGCAUCA
# B6: 138044936_138045304_1278_CDS_ENSMUSG00000041642_ENSMUST00000075164|mouse|control|control (ssRNA)
# RNA: GGGAGUUCUACAGUCCGACGAUCAGAGUCCUGGAGCAGCCGAGUGAGCUUGGAGUCCCUGUAAGGCACGUGCACGACCUUCUUGCUCUGGUCCCCCAAGGCGCUGAUCACAUUGCCCAAGGCCAGCAGACCACAGUUGAUGGACAACAGAGGAUUGAGCAUCA
# B7: 17865945_17866065_226_3pUTR_ENSMUSG00000057614_ENSMUST00000074694|mouse|control|control (ssRNA)
# RNA: GGGAGUUCUACAGUCCGACGAUCCUCCACGGCCGCCUUGUCCUCAGCGCUCAAUGUGCAGCCCAUGGUGGCCGAGCGUCGCCGCGCCCUCGGCGCCGGGGCCGGCUGGCAGAGCGAGGAGAGGCUGGCCCGGAGGCGGCCCCGCAACAGAGGAUUGAGCAUCA
# B8: chr19:47223328:47223329:-_ENSG00000090372_ENST00000263280|hu_mus|FALSE|FALSE (ssRNA)
# RNA: GGGAGUUCUACAGUCCGACGAUCGUGGCACUCUAGGAGGGAGCCUGGCAUCUUCUUUCAUCUUGGUCAAAAUCAGAUCCCAAAGGACACCCAGCCUGGGCUGUGUCAAACUCAGGACGACAGCUAUGUCAGGAGUUGGGGUUGCAACAGAGGAUUGAGCAUCA
# B9: chr1:63355414:63355415:+_ENSMUSG00000027520_ENSMUST00000029025|mus_mus|FALSE|FALSE (ssRNA)
# RNA: GGGAGUUCUACAGUCCGACGAUCAACCAUCUUCUUUUUCCAAAAUUUCCUUUGAUUUUGACUUUCAAGAUCUUCCUUUUUAACUGAUUUGGGAAAUUUUUUGGCACCAUCACGAUUUACAAGAGUCUGCUGGAAAUUAUCCUUCAACAGAGGAUUGAGCAUCA
# B10: 107040475_107040595_147_5pUTR_ENSMUSG00000028614_ENSMUST00000139560|mouse|control|control (ssRNA)
# RNA: GGGAGUUCUACAGUCCGACGAUCCUGCCCGGUACGCUGCCUGGGCAGGGUUCUGCAAAGCCGCCAGACCAUCUCUCCGCAGCUUCGCCUGAACAGACUCAACCGGCCAGAACUUCCCCGUAGCCACAUGCCUCCAGGUGGGCUCAACAGAGGAUUGAGCAUCA
# B11: chr15:59942915:59942916:-_ENSG00000140307_ENST00000396064|hu_mus|FALSE|FALSE (ssRNA)
# RNA: GGGAGUUCUACAGUCCGACGAUCUAGAGAGCCCCUGAAAUUGACUCUGUUCCUGACUCUCUGAGCCAAUGCUGAAUUUAUAGCUUUAUCAAACUGAAGUAGAACUUGAAGCGCAAGCUGGGGGGUGAUCUGUUGAGACUGUAUCAACAGAGGAUUGAGCAUCA
# B12: chr7:141438946:141438947:+_ENSG00000106028_ENST00000265304|hu_mus|hu_hu_hu_mus_True|1_8 (ssRNA)
# RNA: GGGAGUUCUACAGUCCGACGAUCGACGAAAUACCUGUAACACAGGUCUUCGAAACAUGGCUUCUGUUUUUCUUACAACCUAAUCUUUAGGCUUUUCCUAAAGGAAAGAAAGAAAAGAGAAAAAUGAGCAGGGGAUCACUUCCGCAACAGAGGAUUGAGCAUCA
# B13: chr3:179287964:179287965:+_ENSG00000136518_ENST00000429709|hu_hu|hu_hu_hu_mus_True|38_68 (ssRNA)
# RNA: GGGAGUUCUACAGUCCGACGAUCCUUGAGUGGUGAGAUGGCCUCCAUGUUCUCCCUGGGCACGCGGAGAGCAUUAGUGUCUAUGUAGUAGGUGGGCCCGCCUUGUUUGCCUUUGUCACCAUCAAUCUCCAUCAUUGUACUUCCCAACAGAGGAUUGAGCAUCA
# B14: chr7:54825262:54825263:-_ENSG00000132432_ENST00000352861|hu_hu|hu_hu_hu_mus_False|48_68 (ssRNA)
# RNA: GGGAGUUCUACAGUCCGACGAUCCUGCCGGCUGGGCUCCACAAACUGCAUUACCUGAUCCAUGUUUUACCCAACCGGGAUUGAGAGUGCCAGGGACCGUAGCUCAGGAGAGAACCGAGCCCAACGGAACCGGAAGCUGGCAACCAACAGAGGAUUGAGCAUCA
# Target: T1, UNK ZnF1-3 (human, UniProt Q9C0B0 31-174)
# T1 sequence: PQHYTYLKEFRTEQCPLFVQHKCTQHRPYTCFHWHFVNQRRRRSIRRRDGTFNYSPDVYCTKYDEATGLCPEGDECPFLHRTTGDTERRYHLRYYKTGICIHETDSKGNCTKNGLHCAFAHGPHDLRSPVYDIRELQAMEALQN
# Experiment: nsRBNS (natural sequence RNA bind-n-seq); RBNS binding buffer (assumed for nsRBNS): 25 mM Tris pH 7.5, 150 mM KCl, 3 mM MgCl2, 0.01% Triton X-100, 500 ug/ml BSA, 20 U/ml SUPERase-In, 4 C; UNK is unkempt and MSI1 is Musashi-1; names of the RNAs are library labels; protein concentration not given here; high values mean tight binding
row,Binder,binding signal [enrichment R]
1,B1,2.12
2,B2,1.16
3,B3,0.774
4,B4,0.831
5,B5,1.54
6,B6,0.935
7,B7,0.7
8,B8,1.39
9,B9,0.662
10,B10,1.01
11,B11,1.13
12,B12,0.506
13,B13,0.728
14,B14,1.31
